Data reported in PubChem BioAssay AID463173 (ICCB-Longwood Screening Facility, Harvard Medical School, 2010).
Among all 52,000 compounds or so, about 4,300 (8.3%) were called active. Cut-off read from the data, not from the text of the source: active = survival mostly below about 52% (no sharp cut-off); inactive = mostly above about 56%. This is one part of the list.

System: DeltatarO mutant
Assay: growth inhibition of S. aureus wild type versus tarO mutant, primary screen, teichoic acid synthesis inhibitors, RN4220, OD600 (AID 463173)
Settings: OD600, 18 h, active compounds read low, screened at 18.75 µg/mL (by protocol)

SMILES	survival
Cc1ccc(C)c(NC(=O)Nc2cccc(-c3cn4cccnc4n3)c2)c1	inactive: 82%
COc1ccc(-n2nnc(-c3nc(-c4cccs4)no3)c2N)cc1	inactive: 68%
CN1C(=O)C2C3c4ccccc4C(c4ccccc43)C2C1=O (stereo not given)	inactive: 92%
COC(=O)c1ccccc1-n1cc2c(c1-c1cccc(C)c1)c(=O)n(C)c(=O)n2C	inactive: 75%
O=C(Nc1ccc(C(=O)N2CCN(c3ccccc3)CC2)cc1)c1nsc2ccccc12	active: -1%
CCOC(=O)c1cnc2ccc(Cl)cc2c1Nc1ccc(N2CCOCC2)cc1	active: 0%
CCCN(CCC)CCNC(=O)C1CCN(c2nc3ccc(CC)cc3s2)CC1	active: 43%
O=C(CSc1nc2c(c(=O)[nH]1)CN(Cc1ccc3c(c1)OCO3)CC2)Nc1ccc(F)c(F)c1	inactive: 97%
CCC(C)NC(=O)CCc1c(C)nc2cc(-c3ccc(OC)cc3OC)nn2c1C (stereo not given)	inactive: 92%
Cc1cccc(CCNC(=O)C2CCN(c3nc4ccccc4nc3C(F)(F)F)CC2)c1	inactive: 64%
Cc1ccc(-n2ncc3c(NCC(C)C)ncnc32)c(C)c1	active: 37%
CCc1cccc(NC(=O)c2ccc(CNS(=O)(=O)c3ccc4c(c3)C(C)(C)C(=O)N4C)cc2)c1	inactive: 56%
COc1ccccc1-c1cc2nc(C)c(CCC(=O)Nc3cc(C)ccc3C)c(C)n2n1	inactive: 60%
O=C(Oc1ccnc2cc(Cl)ccc12)N1CCCCC1	inactive: 81%
CCc1ccc(NC(=O)Cn2cnc3sc(C)c(S(=O)(=O)N4CCN(c5ccccc5OC)CC4)c3c2=O)cc1	inactive: 118%
CC1CCN(C(=O)CSc2nc3cc4c(cc3cc2C#N)OCO4)CC1	inactive: 110%
Cc1[nH]c2ccccc2c1SCCNC(=O)c1ccccc1F	inactive: 53%
CCOc1ccc(CCNC(=O)c2cc3sc(CC)cc3n2C)cc1OCC	inactive: 55%
Cc1ccc(S(=O)(=O)N2CCC(n3c(C)nc4cccnc43)CC2)c(C)c1	inactive: 79%
Cc1ccc(S(=O)(=O)c2cn(Cc3ccc(F)cc3)c3cc(N4CCCC4)c(F)cc3c2=O)cc1	inactive: 94%
N#Cc1c(-c2ccc3c(c2)OCO3)cc(-c2ccc(F)cc2)nc1N	inactive: 81%
CCc1ccccc1NC(=O)C(=O)NCCc1sc(-c2cccc(F)c2)nc1C	inactive: 91%
Cc1ccc(CNC(=O)c2ccc(-c3nc(CS(=O)(=O)c4ccc(C)cc4)c(C)o3)cc2)cc1	inactive: 70%

SMILES	survival
CCCCNCc1cccn1-c1ccccc1	inactive: 100%
O=C(c1cccs1)N1CCC(Cc2ccccc2)CC1	inactive: 86%
COc1ccc(C(=O)NCC(c2ccco2)S(=O)(=O)c2cccs2)cc1OC (stereo not given)	inactive: 124%
O=C1CCN(C(=O)/C=C/c2ccccc2)c2ccccc21	inactive: 88%
Cc1ccnc(NS(=O)(=O)c2ccc(NC(=O)c3nc(SC(C)C)ncc3Cl)cc2)n1	inactive: 58%
CC(C)Oc1ccc(CNC(=O)Cn2ncn3nc(-c4cccs4)cc3c2=O)cc1	inactive: 83%
COC(=O)c1ccccc1-n1c(CCC(=O)O)ccc1-c1ccccc1	inactive: 180%
COc1cccc(CNC(=O)c2ccc3c(c2)nc2n3CCC(C)C2)c1OC (stereo not given)	inactive: 77%
CCOC(=O)Cc1cc(=O)[nH]c(/N=C(\N)Nc2cccc(Cl)c2)n1	inactive: 90%
COc1ccc(CC(C(=O)O)c2ccccc2)cc1 (stereo not given)	inactive: 65%
CCOC(=O)C1CCCN(C(=O)c2[nH]c3ccccc3c2Sc2ccc(Cl)cc2)C1 (stereo not given)	active: 37%
Nc1c(C(=O)Nc2cccc(C(F)(F)F)c2)c2ccccn2c1C(=O)c1ccccc1	inactive: 77%
CCOc1ccc(NC(=O)CN(C)S(=O)(=O)c2cnc[nH]2)cc1	inactive: 103%
O=C(CSc1nnc2[nH]c(=O)cc(-c3ccccc3)n12)Nc1cc(C(F)(F)F)ccc1Cl	inactive: 74%
COc1ccc(NC(=O)NC(C)c2c(-n3cccc3)sc3c2CCN(C)C3)c(OC)c1 (stereo not given)	inactive: 70%
COC(=O)c1cc(NC(=O)c2ccc(-c3ccc(Cl)cc3Cl)o2)cc(C(=O)OC)c1	inactive: 53%
COc1ccc(NC(=O)CCc2c(C)nc3c(-c4ccc(F)cc4)c(C)nn3c2C)c(OC)c1	inactive: 65%
Cc1ccccc1CN1CCCN(CC(=O)Nc2ccc3c(c2)OCCO3)S1(=O)=O	inactive: 87%
CCOC(=O)c1noc2nc(C)n(Cc3ccc([N+](=O)[O-])cc3)c(=O)c12	inactive: 88%
Cc1cccc(Cn2nnc3c(=O)[nH]c(C4CCN(C(=O)c5ccc(F)cc5)CC4)nc32)c1	active: 28%
CN1CCN(C(CNC(=O)c2ccccc2)c2ccc3c(c2)OCO3)CC1 (stereo not given)	inactive: 76%
CCn1c(=O)cc(SCC(=O)N2CCN(c3ccccc3F)CC2)c2ccccc21	inactive: 74%
COc1ccccc1NC(=O)c1cc(S(=O)(=O)NCCC2=CCCCC2)ccc1F	inactive: 60%

SMILES	survival
CC(=O)Nc1nonc1-c1nc2ccccc2n1Cc1ccccc1Br	inactive: 81%
COc1cc2c(cc1OC)C(COc1ccc3c(C)cc(=O)oc3c1)N(C(=O)CC(C)C)CC2 (stereo not given)	inactive: 72%
Cc1ccc2oc(-c3cc(NC(=O)/C=C/c4ccco4)ccc3Cl)nc2c1	active: 40%
Brc1ccc2nc(SCCOc3ccccc3)[nH]c2c1	active: -1%
COc1c(Cl)cc(Cl)cc1/C=C(\C#N)C(N)=O	inactive: 91%
Cc1ccc2c(c1)N(C(=O)Nc1cccc3c1CCCC3)CC(C)O2 (stereo not given)	inactive: 56%
Cc1ccsc1CN1CCc2nc(N3CCN(c4ccccc4F)CC3)ncc2C1	inactive: 76%
COc1cc(Cl)c(C)cc1NC(=O)c1cnc2c(-c3cccc(C)c3)c(C)nn2c1C	inactive: 55%
CNC(=O)c1ccc(CSc2nc3ccncc3n2Cc2ccc(C)cc2)cc1	inactive: 79%
CCCN(C(=O)Cn1cc(S(=O)(=O)N2CCN(c3ccccc3F)CC2)c2ccccc2c1=O)c1cccc(C)c1	inactive: 88%
CC(C)CN(CCNC(=O)c1cc(-c2ccc(Cl)s2)nc2ccccc12)CC(C)C	inactive: 60%
CCOc1ccc(OCC)c(Nc2nc3ccc(Cl)cc3n3cnnc23)c1	inactive: 65%
COCC(O)CNc1ccccc1 (stereo not given)	inactive: 96%
COc1cccc(CNC(=O)Cn2c(C)c3cnn(-c4ccccc4)c(=O)c3c2C)c1	inactive: 94%
CCC(Oc1ccccc1)C(=O)N1CCOCC1 (stereo not given)	inactive: 80%
CNC(=O)C1CCN(c2nc3ccccc3nc2C(F)(F)F)CC1	inactive: 92%
CCc1ccc(NC(=O)N2CCN(C(=O)c3nsc4ccccc34)CC2)cc1	inactive: 87%
CN(C(=O)CSc1nnc(-c2ccc([N+](=O)[O-])cc2)o1)c1ccccc1	inactive: 69%
Cc1ccc(CNC(=O)CCCn2c(=O)c3ccccc3n(Cc3ccc(Cl)cc3)c2=O)cc1	inactive: 67%
COc1ccc(CCNC(=O)Cn2cc(C(=O)c3ccc(F)cc3)c(=O)c3ccc(C)nc32)cc1OC	inactive: 129%
COCCCNC(=O)C1CCCN(c2nn3cc(-c4ccc(C)cc4)nc3s2)C1 (stereo not given)	inactive: 124%
CC(C)(C)C(=O)Cn1c(=O)n(-c2ccc(Cl)c(Cl)c2)c(=O)c2c3c(sc21)CCCC3	inactive: 112%
COCc1cc(C)nc2sc(C(=O)Nc3cc(C)ccc3F)c(N)c12	inactive: 66%

SMILES	survival
Cc1cc(C)cc(N2CCn3c2nc2c3c(=O)n(CCCc3ccccc3)c(=O)n2C)c1	inactive: 67%
COc1ccc(C(=O)NCCNc2nc3c(C)cccc3cc2C#N)cc1OC	inactive: 67%
Cc1cc(C)nc(NS(=O)(=O)c2ccc(NC(=O)COc3ccc(C(C)(C)C)cc3)cc2)n1	inactive: 56%
CN(C)c1ccc(/C=C2/SC(=Nc3ccccc3)NC2=O)cc1	inactive: 111%
CCOC(=O)CC(NC(=O)N1CCC(CN2CCC(C)CC2)CC1)c1ccccc1 (stereo not given)	inactive: 94%
CC(=O)NC1CCN(C(=O)Nc2ccccc2)CC1	inactive: 91%
O=S(=O)(c1ccccc1)N1CCN(Cc2ccccc2)CC1	inactive: 104%
CC(C)Cn1cc(NC(=O)N2CCN(c3ccccc3F)CC2)c2ccccc2c1=O	inactive: 101%
Cc1cccc(C)c1Nc1c(-c2ccsc2)nc2ccc(Cl)cn12	inactive: 80%
CCc1ccccc1NC(=O)NCc1ccc2c(c1)CCN2C(=O)c1ccccc1	inactive: 125%
COC(=O)c1c(-c2ccc(Cl)cc2)noc1N1CCN(c2cccc(C(F)(F)F)c2)CC1	inactive: 94%
CCCn1ccc2c(OCC(=O)NCc3ccccc3Cl)cccc2c1=O	inactive: 124%
Cc1cc2c(c(=O)o1)C(C(C)C)C(C#N)=C(N)O2 (stereo not given)	inactive: 79%
Cc1nn(C)c2c1c(-c1ccccc1)cc(=O)n2C(C)C(=O)NCc1ccc(F)cc1 (stereo not given)	inactive: 76%
O=C1CC(c2ccccc2)Cc2[nH]c(=O)c(-c3nc(-c4ccc(Cl)cc4)cs3)cc21 (stereo not given)	inactive: 72%
CCN1CCN(C(c2cccc(F)c2)c2c(O)cc(C)n(Cc3ccco3)c2=O)CC1 (stereo not given)	inactive: 76%
Cc1ccc(-n2nnnc2CNC(=O)C(C)C)cc1C	inactive: 105%
CCSc1nnc2c(n1)OC(CC)N(C(C)=O)c1ccccc1-2 (stereo not given)	inactive: 128%
COc1ccc(OC)c(CCNC(=O)c2cnn(-c3ccccc3)c2C2CCN(C(=O)OC(C)(C)C)CC2)c1	inactive: 73%
COc1ccc(-c2cn3nc(N4CCCC(C(=O)NCc5ccccc5Cl)C4)sc3n2)cc1 (stereo not given)	inactive: 101%
COc1cc(OC)cc(N2CCN(S(=O)(=O)c3ccc(-n4cnnn4)cc3)CC2)c1	inactive: 72%
